Some of the results follow.
test system: T1, C. trachomatis L2/434/Bu expressing GFP (CTL2-GFP); set-up: species or system HeLa; C. trachomatis total inclusion area by high-content imaging, normalised to DMSO; settings: total inclusion area; 28.5 h, 10 µM; inhibitor
T1 construct: L2/434/Bu GFP intracellular growth in HeLa cells
Summary of the method: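 Post-fluorescence-read fixation, DNA staining with Hoechst and high-content imaging; GFP inclusion area and number per well, and nuclei counts, used as proxies for bacterial growth and host viability.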

| Structure (SMILES) | % of control remaining |
| --- | --- |
| O=C(O)CCCCCN1C(=O)/C(=C/c2ccc(O)c(O)c2)SC1=S [CBK262771] | 97.7567 |
| CCCCC12CN3CC(C)(CN(C1)C31C(=O)Nc3ccc(Br)cc31)C2=O (centres unmarked) [CBK267348] | 99.2622 |
| CCCc1[nH]ncc1C(=O)N1CCN(c2ccnc(N(C)C)n2)CC1 [CBK305406] | 50.5434 |
| NS(=O)(=O)c1ccc(S(=O)(=O)NCCc2c[nH]c3ccccc23)cc1 [CBK266691] | 104.18 |
| Cc1occc1C(=O)NC(C)c1ccc2c(c1)OCO2 (centres unmarked) [CBK268153] | 101.322 |
| CS(=O)(=O)N(Cc1ccccc1)c1ccc(C(=O)Nc2ccc(-c3ccccc3)cc2)cc1 [CBK262754] | 88.8449 |
| COc1ccc(CC(=O)Nc2ccc(-c3nnc(-c4ccccc4)o3)cc2)cc1OC [CBK267414] | 102.032 |
| O=C(c1cc(F)c(F)cc1F)N1CCC2(CCCN(Cc3cc(=O)[nH]c(=O)[nH]3)C2)C1 (centres unmarked) [CBK132010] | 94.3384 |
| Nc1ncc(-c2cncnc2)nc1N1CCOCC1 [CBK063422] | 77.1302 |
| C=CCSc1nc2sc3c(c2c(=O)[nH]1)CCCC3 [CBK287344] | 97.6674 |
| CCOC(=O)c1ccc(S(=O)(=O)Nc2cc(C(=O)O)ccc2F)cc1 [CBK295308] | 113.648 |
| COc1ccc(Cl)cc1S(=O)(=O)NC(C)C(=O)O (centres unmarked) [CBK270233] | 75.5786 |
| CCOC(=O)c1ccccc1NC(=O)N(Cc1ccc2ccccc2c1)CC1CCNCC1 [CBK049769] | 87.2293 |
| Cc1cc(OCC(=O)NCCCN2CCOCC2)cc(C)c1Br [CBK265082] | 107.571 |
| Cc1cccc(C)c1NC(=O)CCC(=O)OCc1ccccc1 [CBK267158] | 89.2643 |
| CC(C)(CC(=O)Nc1sc2c(c1C(=O)O)CCC2)CC(=O)Nc1sc2c(c1C(=O)O)CCC2 [CBK296100] | 72.2615 |
| CCC(CO)Nc1cncc(-c2cccs2)n1 (centres unmarked) [CBK065534] | 89.1684 |
| COc1cc(CN2CCC(C)CC2)c([N+](=O)[O-])cc1OC [CBK261911] | 104.224 |
| COC(=O)C1CCN(Cc2nc3sc4c(c3c(=O)[nH]2)CCC(C)C4)CC1 (centres unmarked) [CBK304978] | 80.8826 |
| Cc1noc(C)c1CC(=O)NC(C)c1nc2ccccc2s1 (centres unmarked) [CBK281467] | 94.9319 |
| CC(C)C(=O)Nc1cc2ccccc2c(-c2ccc(N(C)C)cc2)n1 [CBK085776] | 84.9105 |
| Cc1nn(C)c(C)c1CCC(=O)NCC(C)Oc1ccccc1F (centres unmarked) [CBK305194] | 96.164 |
| CN(CCNC(=O)Nc1ccc2c(c1)oc(=O)n2C)C1CCCC1 [CBK305503] | 34.263 |
| C(=N\N=C\c1ccccn1)/c1ccccn1 [CBK015627] | 48.4731 |
| O=C(NCc1ccccn1)c1cc2cc(Cl)ccc2[nH]1 [CBK107265] | 92.2208 |
| O=S(=O)(NCCSc1ccccn1)c1ccc(Br)cc1 [CBK264001] | 111.788 |
| COc1cc(/C=C/C(=O)NCc2ccccn2)cc(OC)c1OC [CBK264752] | 105.47 |

| Structure (SMILES) | % of control remaining |
| --- | --- |
| CC(=O)c1cccc(NC(=O)N(Cc2ccco2)CC2CCCO2)c1 (centres unmarked) [CBK304467] | 96.0473 |
| C#CCN(C1CCc2ccccc21)S(=O)(=O)c1cc(C(=O)NC)n(C)c1 (centres unmarked) [CBK306235] | 80.3074 |
| COc1ccc(C(NC(=O)CC2CCN(c3nc(C)cc(C)n3)CC2)C2CC2)cc1 (centres unmarked) [CBK285994] | 122.01 |
| Cc1ccc(S(=O)(=O)N2C[C@H]3C[C@H](NC(=O)C4CC4C)[C@H]3C2)cc1 (some centres unmarked) [CBK285318] | 78.3698 |
| CC(C)CC(=O)N1CCCn2nc(-c3ccncc3)cc2C1 [CBK288606] | 110.758 |
| c1ccc(C(CCN2CCC[C@@H]2CN2CCCC2)c2ccccc2)cc1 [CBK149109] | 83.2129 |
| Cn1ncc(N2CCC(CNC(=O)COc3ccccc3)C2)cc1=O (centres unmarked) [CBK306810] | 80.7703 |
| CN1CCN(CCC(=O)Nc2ccc(Cl)c(C(F)(F)F)c2)CC1 [CBK265995] | 53.1995 |
| COc1cccc(C(=O)N2CCC(Cc3ccc(-c4ccccc4)cc3)(C(N)=O)CC2)c1 [CBK285770] | 89.4464 |
| O=C(CSc1nc(-c2ccco2)cc(C(F)(F)F)n1)Nc1ccc(C(=O)N2CCCCC2)cc1 [CBK266238] | 123.991 |
| Nc1cc2ccccc2c(-c2cccc(C(F)(F)F)c2)n1 [CBK085721] | 69.8088 |
| Cc1cc(I)ccc1NC(=O)CCC(=O)N/N=C/c1ccco1 [CBK261991] | 102.161 |
| c1coc(-c2nc3cnccn3c2NC2CCCC2)c1 [CBK283678] | 104.46 |
| COC(=O)Nc1nc2cc(F)c(Cl)cc2[nH]1 [CBK026927] | 19.8074 |
| O=C(NCCc1ccc(Cl)cc1)C1CCN(C(=O)c2ccc3nsnc3c2)C1 (centres unmarked) [CBK285553] | 106.529 |
| CC(Oc1cccc(F)c1)C(=O)N(C)Cc1cccnc1 (centres unmarked) [CBK304841] | 40.3506 |
| Cc1cc(NC(=O)CS(=O)(=O)c2cccc(C(F)(F)F)c2)on1 [CBK306015] | 111.365 |
| CCn1c(N2CCCC(C(=O)NC3CC3)C2)nc2ccccc21 (centres unmarked) [CBK282419] | 125.628 |
| O=C(Nc1cc(NC(=O)C2C3C=CC(C3)C2C(=O)O)ccc1Cl)c1cccs1 (centres unmarked) [CBK263959] | 100.289 |
| COc1cc(C2N3CC4(C)CN2CC(C)(C3)C4=O)ccc1O (centres unmarked) [CBK261453] | 91.6219 |
| OCCc1ccc(Nc2cc(-c3ccsc3)ncn2)cc1 [CBK090769] | 112.28 |
| CCN1CCN(CCOc2c(OC)cccc2OC)CC1 [CBK267375G] | 126.769 |
| COc1ccc([C@@]23CC[C@@H](NC(=O)c4ccc5occc5c4)C[C@@H]2N(C)CC3)cc1OC [CBK074253T] | 91.7523 |
| COC(=O)c1sccc1NC(=O)c1ccccc1Cl [CBK066860] | 91.8553 |
| O=C(c1cccs1)N1C[C@H](c2ccc(F)cc2)[C@H]2CN(Cc3ccc(F)cc3)CC[C@H]21 [CBK285545] | 94.9417 |
| Cc1nn(CC(=O)N(C)C(C)c2ccncn2)c(=O)c2ccccc12 (centres unmarked) [CBK307669] | 60.5107 |
| CC(C)c1nc(NCc2nnc(C(C)C)n2C)nc(N(C)C)n1 [CBK306402] | 70.7273 |

| Structure (SMILES) | % of control remaining |
| --- | --- |
| O=C1COc2ccccc2C/C=C/CC2(CCCN(C(=O)Cn3ccnc3)C2)CN1 (centres unmarked) [CBK292050] | 78.2542 |
| CCC(NC1CCc2nc(COC)nn2C1)c1ccccc1O (centres unmarked) [CBK305132] | 79.3306 |
| O=C(Cc1cc(F)c(F)c(F)c1)Nc1ccc2[nH]ccc2c1 [CBK159684] | 102.17 |
| CC1CCc2c(sc(NC(=O)CCC(=O)O)c2C(=O)N2CCOCC2)C1 (centres unmarked) [CBK307550] | 69.1245 |
| O=[N+]([O-])c1ccccc1S(=O)(=O)N1CCN(S(=O)(=O)c2ccc(F)cc2)CC1 [CBK264236] | 99.8038 |
| O=C1c2ccccc2C(=O)N1CC1c2ccccc2CCN1S(=O)(=O)c1cccc2nsnc12 (centres unmarked) [CBK261133] | 106.672 |
| Cc1nn(C)cc1S(=O)(=O)Nc1cccc(-c2ccc(F)cc2)c1 [CBK282788] | 78.2624 |
| CCOc1ccccc1C(=O)Nc1cc(C)c2c(=O)oc3ccccc3c2n1 [CBK291240] | 98.4995 |
| O=C(C1CC1)N1C[C@@H](c2ccccc2)[C@H](c2cc(C(F)F)[nH]n2)C1 [CBK284791] | 122.195 |
| Cc1onc(-c2ccccc2Cl)c1C(=O)N(C)C [CBK160325] | 146.606 |
| O=C(Nc1ccccc1-n1cnnn1)c1ccccc1Cl [CBK287994] | 118.294 |
| CS(=O)(=O)N1CCCC(C(=O)Nc2nccs2)C1 (centres unmarked) [CBK287834] | 71.4895 |
| N#CCCN(C(=O)NCCCN1CCCC1=O)C1CCCCC1 [CBK156379] | 105.638 |
| O=C(Nc1ccc(C(=O)O)c(O)c1)c1ccc(Br)o1 [CBK270053] | 99.5732 |
| Brc1ccc2[nH]c3c(c2c1)CCOC31CCN(CC2CCCCO2)CC1 (centres unmarked) [CBK040648] | 69.1981 |
| Cc1ccc(NC(=O)Nc2cc(S(N)(=O)=O)ccc2C)cc1 [CBK093428] | 91.678 |
| CCc1nn(CC(=O)N(CC)CC)c(=O)c2cc3occc3n12 [CBK283656] | 85.294 |
| COc1ccc2c(c1)OC1(CCN(CC(O)c3ccc(-c4ccccc4)cc3)CC1)CC2O (centres unmarked) [CBK286346] | 99.7914 |
| COc1ccc2c(c1)c(C(NCc1cccc(C(F)(F)F)c1)C(N)=O)nn2Cc1ccccc1 (centres unmarked) [CBK010715] | 16.3211 |
| O=C(CN1C(=O)N2CCN=C2c2ccccc21)NC1CC1 [CBK283958] | 71.2752 |
| Cc1sc(NC(=O)CN(Cc2cnn(C)c2)C(C)C)c(C#N)c1C [CBK306303] | 85.0704 |
| COC(=O)c1sccc1NC(=O)Cn1nnc(-c2ccc(C)cc2)n1 [CBK267183] | 125.01 |
| COc1ccc(/C=N\N(C)c2nc(-c3ccccc3)cc(-c3ccc(Br)cc3)n2)cc1OC [CBK261799] | 102.581 |
| CCCCn1cnc2c(c1=O)c1nc3ccccc3nc1n2CCc1ccc(OC)cc1 [CBK269538] | 71.7785 |
| Cc1ccc(C(=O)NC(=S)Nc2cccc(NC(=O)c3ccccc3C)c2)cc1 [CBK264049] | 108.384 |
| c1ccc(NCCOc2nccnc2N2CCCC2)cc1 [CBK115814] | 79.1792 |

Reference: paper PMC12040169 (PLOS Biology, 2025)
